The full ranking holds about 33,000 sequences; the median of “E-score (-0.5 to 0.5)” is about -0.013, and the highest 2% start at about 0.3. The list shows a part of the results.
What follows are sequences tested against T1, Msn1 (UniProt P22148) (assay: PBM E-score (8-mer binding enrichment) (E-score (-0.5 to 0.5)); higher = stronger / more preferred TF binding; most listed sequences are background and not binding sites). Conditions: protein concentration: 200 nM; construct: GST-full length.
T1 sequence: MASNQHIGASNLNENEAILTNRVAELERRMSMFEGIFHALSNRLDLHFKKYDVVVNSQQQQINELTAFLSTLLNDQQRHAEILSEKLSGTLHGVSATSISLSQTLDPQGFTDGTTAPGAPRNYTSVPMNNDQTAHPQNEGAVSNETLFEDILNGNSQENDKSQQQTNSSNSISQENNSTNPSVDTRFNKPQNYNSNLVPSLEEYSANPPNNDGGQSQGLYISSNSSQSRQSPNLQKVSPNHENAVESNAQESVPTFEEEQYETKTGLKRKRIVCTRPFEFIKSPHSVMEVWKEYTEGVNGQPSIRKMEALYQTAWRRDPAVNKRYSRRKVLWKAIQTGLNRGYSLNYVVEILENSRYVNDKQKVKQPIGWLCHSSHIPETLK
In short: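 Yeast transcription factors, full-length or as DNA-binding domains, were expressed with a GST tag using PURExpress in vitro transcription/translation. At about 100-200 nM they were applied to universal all-10-mer Agilent arrays, double-stranded by primer extension on fresh or once-stripped slides. Fluorescent anti-GST detected bound protein, and masliner normalised the scans. E-scores for ungapped eight-base words, pooled with reverse complements, came from the Universal PBM Analysis Suite.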

Sequence	PBM E-score
AGCACCTC	-0.148
CCTAAATA	-0.129
ACCCCAAA	0.0866
ACTCAACG	-0.108
ACTTAAGG	0.066
ACGGCGCT	-0.183
ATAGGTGG	0.0555
ATTGACCC	0.0434
GAAACGGC	-0.0341
CAACTTTA	0.0445
GCCCGAGA	0.129
CCAAGCAC	-0.0299
TATCAAAA	0.145
GATCACAA	0.157
ATATACAA	0.24
CTCGTCAC	0.0128
ACTACATC	-0.0335
GCTAAGCA	-0.0885
AACGTAGT	-0.0151
ATATGGTA	0.154
CACATTGA	0.0276
CGTTGTAA	0.0531
ACCCTGGC	-0.349
GTAAGATA	0.162
AAATAATG	0.117

Sequence	PBM E-score
CCGAATAC	0.0509
GGACGAAC	0.282
AGAGGTTC	-0.0645
CTCACGAG	-0.193
CTCAATTC	-0.0581
ATCATGCA	-0.222
GCCGGTCA	0.00773
GGTGTTAA	-0.0746
ACCATTGC	-0.0477
GCGAAACA	0.0374
CGAGTTAC	0.0785
GGCCTGTA	-0.247
CCTCTTGA	-0.0795
GTGGGGAA	-0.0697
AAGGCCAT	0.0237
CTGCGCAC	-0.0321
GTGTGTAA	-0.0988
AGAACCAC	-0.117
ACGATCGT	0.208
AGTCTCAC	-0.00088
CATGAACG	-0.0971
GGGGGCGA	-0.417
AATCGATT	0.0863
CAGCCACA	-0.0773
CCCAAGCC	-0.0839

Sequence	PBM E-score
CTGGCACC	-0.275
CTGCGTAC	-0.12
TAGGTCCA	0.153
CCAGATGA	0.107
AATACGTA	0.00965
TATCTTAA	0.129
ATTATCAC	0.147
ACACGTGC	0.0777
CAACGGTA	-0.128
ATAAGGAC	0.369
ACGGGAGC	-0.184
CACAGCAG	-0.0659
ACCGCGTC	0.12
TATCGTAA	-0.0517
GGTGATAC	-0.105
AAAAGCAG	-0.0398
ATTAGCAA	0.22
ACCGCCGC	-0.0867
AAAGGTTA	-0.071
GCGCCCAA	-0.149
TCTATAGA	-0.165
AAAGGAAC	0.0464
GAGGCCCC	-0.343
AGGCCCAT	-0.227
CTAACCTC	-0.162

Sequence	PBM E-score
CCGAGAGC	-0.0632
CACCGCAC	-0.119
GCATGGCA	-0.0098
ACGGGTAA	-0.00678
CAGCTTGG	0.033
GCGAAACC	0.122
CATTCGCC	-0.196
AAAGATTT	-0.0185
CTCGGATC	0.188
AACAGACC	-0.0742
CAACTCTG	-0.0439
CGTTATCC	0.00106
CCTGACCG	-0.128
GTTCAGTA	0.0516
ACGCGGTA	-0.0954
GCATATAC	0.0331
CCGGTGCC	-0.126
AACCCGGA	0.0522
ATGCCATC	-0.0803
ACCTAGCC	-0.0544
AGGCTGTG	-0.082
GGGCAAAA	0.142
ACGGGCAT	-0.0723
GCTAGAGC	-0.146
GAACGCTA	-0.164

Sequence	PBM E-score
GCAGGGAC	0.163
CATAGGCG	-0.0149
TACACCTA	-0.0747
CCTTCCAA	-0.23
GTATAGCA	0.115
ATTGCTCC	0.0201
CAGTCCGG	-0.0462
CACAACAC	0.021
CACAGTAC	0.146
CTCCATTC	-0.0717
CTACGGTC	-0.267
AAATCATT	0.124
AGAATCCC	0.196
CTCGGGGC	-0.183
CCCTTTTC	-0.0434
CTCCTACC	-0.385
TACCCGTA	-0.0437
ATATCGGA	0.16
CAGCCTGG	-0.164
GTACGGAA	0.138
AGACTGTG	-0.13
CTAATGTC	0.378
ATATCCGC	-0.0503
CAAAAAGG	-0.0523
AGTTGTTC	0.0053

Sequence	PBM E-score
AGGCCATC	-0.0374
ATCAGCCA	-0.199
TACGGGGA	-0.11
CGTTATAA	0.0511
TCAGGTAA	-0.187
AAATGGAC	0.338
AGCAGTTC	-0.216
CGGTCAGA	0.0144
CGCGTAAC	0.0166
ATTAAAGC	0.0761
CAGCGCTC	-0.109
TCACTCCA	0.0709
CTTCGCGA	-0.0474
TCGGATAA	0.0982
AAAAGGGT	0.0914
TCTTATAA	0.164
ATCGCCGA	0.0457
AGTCCCCA	-0.186
ACTTTCCC	-0.124
CTTGTTTA	0.0291
CAATCTTA	0.0591
AACGCGGT	0.0128
GTATGCCA	-0.169
ACCTTGCA	-0.105
CCGTGATC	-0.0112

Sequence	PBM E-score
ACCAGCGG	-0.0991
ATGGCCAG	0.0616
AGCGAAAA	-0.0661
TCAACGAA	0.101
AAAGAGAA	0.0586
CCCTTTCC	-0.196
ACCAACAA	0.101
CCTCAAGA	-0.136
AGGTAACT	0.07
GAAATATC	0.151
AGTATGTC	0.353
GCCCAAAC	-0.0708
ACCTACTC	-0.0557
AGCCGGCC	-0.1
AAGCTTGA	-0.108
AAGTCAGA	0.0287
CACGGTCA	0.098
CTTAACCC	-0.183
ACTTGCAG	0.0752
CGCCAGTC	-0.214
ATAAGCTA	0.0481
ACGACGAA	0.114
ACTCTACT	0.0905
CCCCCAGA	-0.3
AGAGAAGA	0.012

Sequence	PBM E-score
TTGAAAAA	0.0748
AAAGTCTT	0.187
CGTAATTC	0.0697
AACTTATG	-0.139
ATTGCGTC	0.123
CACCCAAC	-0.201
GATTCTGA	-0.0324
ATCTTTAC	-0.0234
CAATACTG	0.0181
CTTGCAGC	-0.0125
AACGTAAG	-0.0801
GCGTACAC	0.0788
ATCGGATG	-0.0434
CACCTACA	-0.11
ATTAGATC	0.0117
GCAAGCTA	-0.0766
AACTGACT	0.0085
ACCACAAG	0.00018
CGGTCCGC	0.00168
ATTGCGTG	-0.134
ACGATCCG	-0.0628
GGTCGAGA	-0.242
ATGTCGAG	0.162
ACTACAAA	0.162
TTAGCTAA	-0.0991

Sequence	PBM E-score
AAGTAATA	-0.0811
GCACACAC	-0.103
GTCCACAA	0.294
CCGCCTAC	-4e-05
ACCTAATG	-0.261
CCAAGAAC	-0.0852
AGTTCAAT	-0.148
TAATCGTA	0.0255
CCCAAAAA	0.0733
AGAGGATC	-0.145
TCCTGAGA	0.0942
CCTGTCCA	0.156
CCAGTGAG	-0.235
AATCGTCC	0.0791
ACAAGGCT	0.106
CTAACATC	0.00886
TACTCCGA	0.0959
TACGTCGA	-0.0753
CCACCGCG	-0.0225

— the supplement of paper PMC3334620
